According to PubChem BioAssay AID624202 (National Center for Advancing Translational Sciences (NCATS), 2012):
Among all 380,000 compounds or so, about 4,000 (1.1%) were called active. The shares of active, inactive and inconclusive entries below differ from those in the screen. The call rests on the fitted dose curve; in most records, active means well fitted activation curve with a large enough effect; inconclusive means small, poorly fitted or top-dose-only effect; inactive means no such curve, though single readings can be large or run the other way. Where the call is inconclusive, the potency comes from a doubtful curve fit.

Assay: qHTS Assay to Identify Small Molecule Activators of BRCA1 Expression; further: nearly all actives have a fitted effect of over 80% in size
Settings: MCF7-BRCA1-FFLuc reporter, luminescence, 48 h; activation: at 46.1 µM (top of the series), scaled: vehicle 0%, 10 µM genistein 100% unless noted
Outline: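 MCF7-BRCA1-FFLuc, 2000 cells/well; 2 h attach, 37 °C/5% CO2; compound 48 h; luciferase substrate 15 min; luminescence end-point. Norm. to genistein 10 microM max activation and DMSO; concentration-response curves fitted.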
Potency means the concentration at half of the fitted maximal effect; tags describe the fitted curve by direction and shape.

Structure (SMILES)	Potency	activation
Cc1ccc2[nH]cc(/C=C/c3cc[n+](C)cc3)c2c1	inactive	–
O=C(Nc1ccc2c(c1)OCCO2)c1ccoc1	inconclusive: 4.47 µM [activator, partial curve, poor fit]	–
CS(=O)(=O)Nc1cccc(-c2cnc3ccccc3n2)c1	inconclusive: 2 µM [activator, full curve, poor fit]	–
O=c1c2ccccc2ncn1CCOc1ccccc1[N+](=O)[O-]	inconclusive: 17.8 µM [activator, partial curve, poor fit]	–
COc1ccc(-c2csc(NC(=O)CSCc3c(C)noc3C)n2)cc1OC	inactive	–
COCCn1c(C)cc(C(=O)CN2C(=O)NC3(CCCCCCC3)C2=O)c1C	inconclusive: 2.51 µM [activator, full curve, poor fit]	–
O=C(Nc1ccc2c(c1)OCCO2)c1ccc(Br)s1	inconclusive: 2.51 µM [activator, partial curve, poor fit]	–
CC(=O)Oc1ccccc1C(=O)Nc1ccccc1	inconclusive: 12.6 µM [activator, partial curve, poor fit]	–
O=C(Cc1ccccc1)c1nc2ccccc2s1	inconclusive: 2.51 µM [activator, partial curve, poor fit]	–
COc1ccc(C(=O)NCC2CCCO2)cc1 (configuration not stated)	inconclusive: 35.5 µM [activator, single point]	–
Fc1ccc(Nc2nc(-c3ccncc3)nc3ccccc23)cc1	inactive	–
Cc1cccc(-c2noc(Cc3ccc(Cl)cc3)n2)c1	inconclusive: 12.6 µM [activator, partial curve, poor fit]	–
C=C(C)C1Cc2c(C)nn(-c3ccccn3)c2C1 (configuration not stated)	inactive	–
CN(C)c1ccc(/C=c2\sc3n(c2=O)CCCN=3)cc1	–	inconclusive: -48.8% [activator]
O=C(Nc1nc2c(s1)C(=O)CCC2)c1ccccc1	inconclusive: 0.631 µM [activator, full curve, poor fit]	–
N/C(=N\OC(=O)/C=C/c1ccccc1)c1ccccc1	active: 7.08 µM	–
COc1ccc(C(=O)Nc2cnc(NC(=O)c3cccs3)cc2C)cc1	active: 7.08 µM	–
COc1ccc(S(=O)(=O)Nc2ccc(O)c(Sc3ncn[nH]3)c2)cc1	inactive	–
CC(C)C(=O)Nc1nc(-c2ccc([N+](=O)[O-])cc2)cs1	inconclusive: 11.2 µM [activator, partial curve, poor fit]	–
Cc1ccc(Cc2cn3cc(-c4ccccc4)nc3s2)cc1	inconclusive: 0.316 µM [activator, full curve, poor fit]	–
Cc1ccc(C)c(CSc2nnc([C@@H]3CCCN3)o2)c1	inactive	–
COc1cnc(-c2ccccn2)nc1Oc1c(C)cccc1C	inactive	–
Cc1ccc(NC(C(=O)c2ccccc2)c2ccccc2)cc1 (configuration not stated)	inactive	–
O=C(O)c1cccc(N/N=C/c2cn(-c3ccccc3)nc2-c2cccs2)c1	inconclusive: 1.26 µM [activator, full curve, poor fit]	–
Cc1cc(C(=O)Nc2ccc(Br)cn2)sc1C	inconclusive: 2 µM [activator, partial curve, poor fit]	–
Nc1cccc2cc(-c3ccccc3)oc12	inconclusive: 7.08 µM [activator, partial curve, poor fit]	–

Structure (SMILES)	Potency	activation
O=C(Nc1ccccc1)c1ccc2c(c1)OCO2	active: 10 µM	–
Cc1nc(C)c(/C(O)=C\c2nc3ccc([N+](=O)[O-])cc3oc2=O)o1	inactive	–
O=C(CSc1nnc(-c2ccc(O)cc2)o1)Nc1cccc(O)c1	inactive	–
Cc1ccc(S(=O)(=O)NCCCNS(C)(=O)=O)cc1	inactive	–
COc1ccc(C(=O)N=c2sc3c(C)ccc(OC)c3n2C)cc1	inconclusive: 3.55 µM [activator, partial curve, poor fit]	–
CN(C)c1ccc(C=NN2CCCCCC2)cc1	active: 7.94 µM	–
O=C(Nc1ccc(Cl)cc1)Nc1ccc2c(c1)OCO2	inconclusive: 1.41 µM [activator, full curve, poor fit]	–
O=C(NNC(=S)Nc1ccccc1Cl)c1ccccc1Cl	active: 10 µM	–
Cc1nnc(Oc2ccccc2F)c2ccccc12	inconclusive: 10 µM [activator, partial curve, poor fit]	–
Cc1cccc(OCC(=O)Nc2sc3c(c2C#N)CCC3)c1	active: 10 µM	–
O=C(N/N=C/c1ccc(OCc2ccccc2)cc1)c1ccncc1	inconclusive: 17.8 µM [activator, partial curve, poor fit]	–
CC(C)S(=O)(=O)c1csc(C(=O)Nc2ccc(F)cc2)c1N	inconclusive: 1.12 µM [activator, full curve, poor fit]	–
Cc1ccc(OCc2nc(-c3ccccn3)no2)c(Br)c1	–	inconclusive: -47.8% [activator]
Cc1cc(=O)[nH]c(SCC(=O)c2ccc3c(c2)NC(=O)CO3)n1	inactive	–
COc1ccc(/C=C/C(=O)Nc2cccc(S(=O)(=O)NC3=NCCCCC3)c2)cc1	active: 7.94 µM	–
c1ccc(Cn2c(-c3ccco3)nc3nc4ccccc4nc32)cc1	inconclusive: 2.82 µM [activator, full curve, poor fit]	–
O=c1ccn(Cc2ccccc2)c(SCc2ccccc2)n1	inactive	–
O=C(CCNC(=O)c1ccccc1Cl)NNC(=O)c1ccccc1O	inactive	–
Cc1ccc(-c2nc3cc(C)ccc3o2)cc1	inconclusive: 2 µM [activator, partial curve, poor fit]	–
CC[n+]1ccccc1/C=C1\Sc2ccc(C)cc2N1C	inactive	–
Nc1ccc(C(=O)Nc2ccco2)cc1	inconclusive: 11.2 µM [activator, partial curve, poor fit]	–
O=c1oc(Nc2cccc(F)c2)nc2ccccc12	inconclusive: 14.1 µM [activator, partial curve, poor fit]	–
COc1ccc(C(=O)CC(=O)c2ccc(F)cc2)cc1	inconclusive: 12.6 µM [activator, partial curve, poor fit]	–
Cc1nc(N2CCOCC2)c2c(C)c(C(=O)Nc3ccccc3Cl)sc2n1	inactive	–
CN(Cc1nc(-c2cccs2)no1)CC1COCCO1 (configuration not stated)	inconclusive: 11.2 µM [activator, partial curve, poor fit]	–
O=C(/C=C\Nc1ccc(Cl)cn1)c1ccc(Br)cc1	inconclusive: 2.51 µM [activator, full curve, poor fit]	–

Structure (SMILES)	Potency	activation
CCC(=O)c1ccc(N2CCN(C(=O)c3cccs3)CC2)c(F)c1	inconclusive: 11.2 µM [activator, partial curve, poor fit]	–
CC(=O)c1ccc(Oc2nc3c(c(=O)n(C)c(=O)n3C)n2C)cc1	inactive	–
CCCN(Cc1ccccc1)C(=O)Nc1ccc2c(c1)nnn2C	inconclusive: 22.4 µM [activator, single point]	–
C(=NOCCc1ccccc1)c1ccncc1	inconclusive: 11.2 µM [activator, partial curve, poor fit]	–
N/C(=N\OC(=O)Cc1ccc(Cl)cc1)c1ccccn1	active: 10 µM	–
CCOC(=O)c1nn(-c2ccc3ccccc3c2)cc1O	active: 2.82 µM	–
COC(=O)Cn1ncn2c(cc3oc(C)cc32)c1=O	inconclusive: 10 µM [activator, partial curve, poor fit]	–
CCOC(=O)c1nn(-c2cccc(C)c2)cc1C(=O)c1ccccc1	inconclusive: 22.4 µM [activator, single point]	–
COc1cccc(NC(=O)CCN2C(=O)C3CC=CCC3C2=O)c1 (configuration not stated)	inactive	–
CCOc1ccc(NC(=O)Nc2cc(C)ccc2F)cc1	active: 2.51 µM	–
COc1ccc(NC(=O)Nc2ccc(F)cc2F)cc1	active: 10 µM	–
CN(c1cccc(NC(=O)COc2ccccc2)c1)S(C)(=O)=O	inconclusive: 15.8 µM [activator, single point]	–
O=C(NCc1cccc2ccccc12)c1cccs1	inconclusive: 12.6 µM [activator, partial curve, poor fit]	–
Cc1cc(C)cc(NC(=O)c2sc3nc(C)cc(C)c3c2N)c1	active: 3.98 µM	–
CCCn1cnc2c(SCc3ccccc3)nc(N)nc21	inconclusive: 14.1 µM [activator, single point]	–
COc1cccc(-c2nc3ccc(C(=O)N4CCCC(O)C4)cc3o2)c1 (configuration not stated)	active: 3.16 µM	–
CCOC(=O)c1cnc2c(-c3ccccc3)cnn2c1N	inconclusive: 0.631 µM [activator, full curve, poor fit]	–
CCC(=O)n1nc(-c2ccc(Cl)cc2)nc1SC	active: 10 µM	–
CC(C)(COC(=O)c1ccccc1)N1CC2CCC(C1)O2	inconclusive: 11.2 µM [activator, partial curve, poor fit]	–
CCOCCn1ccc2c(OCC(=O)Nc3cc(OC)ccc3OC)cccc2c1=O	inactive	–
CNS(=O)(=O)c1ccc(NC(=O)Nc2ccc3c(c2)OCO3)cc1	inconclusive: 14.1 µM [activator, partial curve, poor fit]	–
Cc1ccc(NC(=O)CCC(=O)c2cccs2)c(Br)c1	active: 6.31 µM	–
O=C(Nc1ccc2c(c1)OCO2)C1CC1(Cl)Cl (configuration not stated)	inconclusive: 11.2 µM [activator, partial curve, poor fit]	–
Cc1ccnc(N=Cc2nc(-c3ccccc3Br)oc2O)c1	inconclusive: 12.6 µM [activator, partial curve, poor fit]	–
CN(C)S(=O)(=O)c1cccc(C(=O)NCCc2ccccc2)c1	inconclusive: 1.58 µM [activator, partial curve, poor fit]	–
